Measured values: PubChem BioAssay AID624417 (National Center for Advancing Translational Sciences (NCATS), 2012)
The whole screen tested about 410,000 compounds, of which about 6,400 (1.6%) were called active. The inconclusive results got no clear call from the source; some entries with a clear call stand among them for comparison. Calls follow the shape of the dose curve; as a rule, active = well fitted inhibition curve with a large enough effect; inconclusive = small, poorly fitted or top-dose-only effect; inactive = no such curve, though single readings can be large or run the other way. A potency beside an inconclusive call is a rough fit, not a confirmed value.

The molecules below were run against Glucagon-like peptide 1 receptor (Homo sapiens) (UniProt P43220) (assay: qHTS of GLP-1 Receptor Inverse Agonists (Inhibition Mode)). Conditions: HEK293 GLP-1R CRE-luciferase, luminescence, 24 h, GLP-1R form is constitutively active; series mostly up to 38.3 µM.
UniProt P43220, sequence (P43220 whole entry, looked up): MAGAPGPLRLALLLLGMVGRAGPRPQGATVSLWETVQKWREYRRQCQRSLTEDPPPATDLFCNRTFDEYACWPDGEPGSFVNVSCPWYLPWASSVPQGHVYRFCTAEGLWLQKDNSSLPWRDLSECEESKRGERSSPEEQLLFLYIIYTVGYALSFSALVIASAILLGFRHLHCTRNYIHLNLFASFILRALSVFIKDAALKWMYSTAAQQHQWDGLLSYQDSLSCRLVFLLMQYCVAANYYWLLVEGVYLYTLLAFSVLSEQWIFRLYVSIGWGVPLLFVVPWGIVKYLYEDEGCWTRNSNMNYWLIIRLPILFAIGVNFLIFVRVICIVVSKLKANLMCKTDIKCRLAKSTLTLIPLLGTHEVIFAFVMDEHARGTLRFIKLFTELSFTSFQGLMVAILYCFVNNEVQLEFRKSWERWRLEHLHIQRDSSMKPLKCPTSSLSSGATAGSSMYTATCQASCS
How it was run: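 Seeding at 200 cells/uL, 12 h culture, 24 hr compound treatment, then luciferase reagent and a luminescence read; cells are HEK293 stably expressing a constitutively active GLP-1R plus cAMP-responsive luciferase.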
Also: nearly all actives have a fitted effect of over 55% in size.
Potency is read from the fitted curve at half-maximal effect; tags tell the direction and shape of the fitted curve.

Potency, active:
O=C(NNc1cc(Cl)cc(Cl)c1)c1c(F)cccc1Cl 10 µM
CCOC(=O)C1=CN(Cc2cccc(F)c2)S(=O)(=O)NC1c1ccc2ccccc2c1 (centres undefined) 12.6 µM

Potency, inconclusive:
CC(C)=CCC/C(C)=C/COc1ccc2ccc(=O)oc2c1 20 µM [inhibitor, single point]
CC(C)CN1CCN(CCCOC(=O)Nc2cccc3ccccc23)CC1C (centres undefined) 7.94 µM [inhibitor, partial curve, poor fit]
O=C(NCc1cccc(Br)c1)C1CC(c2ccccc2C(F)(F)F)=NO1 (centres undefined) 10 µM [inhibitor, partial curve, poor fit]
O=S(=O)(Nc1ccc(F)cc1Cl)c1ccc(-c2cnc(C3CC3)o2)cc1 1.58 µM [inhibitor, full curve, poor fit]
O=C(Cc1ccc(F)cc1)Nc1ccc(S(=O)(=O)N2CCCCC2)cc1 11.2 µM [inhibitor, partial curve, poor fit]
COc1cccc(C(=O)Nc2ccc3nc(N4CCC(C)CC4)cc(C)c3c2)c1 11.2 µM [inhibitor, single point]
Cc1[nH][nH]c(=O)c1C(c1c(C)[nH][nH]c1=O)c1cn(Cc2cccc3ccccc23)c2ccccc12 10 µM [inhibitor, partial curve, poor fit]
CC(C)(C)c1ccc(-c2cc(C(=O)NNC(=O)Nc3ccccc3)c3ccccc3n2)cc1 11.2 µM [inhibitor, partial curve, poor fit]
COc1ccc(C)cc1Nc1nc(C)nc2sc(C)cc12 7.94 µM [inhibitor, partial curve, poor fit]
CCCc1nc2ccc(Cl)cn2c1Cc1ccccc1OC 28.2 µM [inhibitor, single point]
CC1C(c2ccc3c(c2)OCO3)c2cc3c(cc2OC1N1CCOCC1)OCO3 (centres undefined) 28.2 µM [inhibitor, single point]
Cc1ccc(S(=O)(=O)C(C#N)c2nc3ccccc3nc2N2CCN(C)CC2)cc1 (centres undefined) 28.2 µM [inhibitor, single point]
COc1ccc(Cl)c(NC(=O)Cn2nnc(-c3ccccc3N)n2)c1 22.4 µM [inhibitor, partial curve, poor fit]
CC1CC(C)CN(C(=O)c2cccc(S(=O)(=O)N(C)c3ccccc3)c2)C1 (centres undefined) 15.8 µM [inhibitor, single point]
Cc1cccc(N2CCN(CCCNC(=O)c3nnc(Cc4c(F)cccc4Cl)o3)CC2C)c1 (centres undefined) 11.2 µM [inhibitor, partial curve, poor fit]
COc1ccc2oc(C(=O)OCC(=O)N(C)C3CCCCC3)c(C)c2c1 10 µM [inhibitor, partial curve, poor fit]
Cc1cccc(CN2CCC(CNC(=O)CSc3cc(=O)n(C)c4cc(Cl)ccc34)CC2)c1 5.62 µM [inhibitor, full curve, poor fit]
O=c1c(C=NCc2cccnc2)c(C(F)(F)F)[nH]n1-c1nc2ccccc2s1 10 µM [inhibitor, partial curve, poor fit]
O=C(NCc1ccccc1Cl)C1CCN(S(=O)(=O)c2ccc(F)cc2)CC1 28.2 µM [inhibitor, single point]
Cc1ccccc1CNC(=O)Cn1ccc2cc(S(=O)(=O)N3CCCCCC3)ccc21 20 µM [inhibitor, single point]
O=C(Cc1ccc(Cl)cc1)NCC(c1cccs1)S(=O)(=O)c1ccc(F)cc1 (centres undefined) 14.1 µM [inhibitor, single point]
Cc1ccc(S(=O)(=O)N2CCC(=O)N(C(COCc3cccc(Cl)c3)Cc3ccccc3)CC2)cc1 (centres undefined) 10 µM [inhibitor, partial curve]
COc1ccc(C2=C(C)C(=O)N(Cc3ccc(C(=O)Nc4cc(C)ccc4C)cc3)S2(=O)=O)cc1 8.91 µM [inhibitor, partial curve, poor fit]
Cc1cc2c(cc1C)-n1nnnc1C(N1CCN(C(=O)OCc3ccccc3)CC1)C(=O)N2 (centres undefined) 0.447 µM [inhibitor, full curve, poor fit]
CCN(CC)S(=O)(=O)c1nnc(NC(=O)c2ccc(C(C)C)cc2)s1 6.31 µM [inhibitor, single point]
COc1ccc(NC(=O)CSc2nnnn2C2CC3C=CC2C3)cc1 (centres undefined) 28.2 µM [inhibitor, single point]
CSc1ccccc1C(=O)NCc1ccc(C)cc1 12.6 µM [inhibitor, single point]
COc1ccc(N2C[C@H](Cc3ccccc3)[C@@H](CC(=O)Nc3ccccc3)C2=O)cc1 14.1 µM [inhibitor, partial curve, poor fit]
CC(C)c1ccc(NC(=O)N2CCc3ccccc3C2)cc1 7.08 µM [inhibitor, partial curve, poor fit]
CC1CCCCN1c1cc(C#N)c(C#N)cc1[N+](=O)[O-] (centres undefined) 4.47 µM [inhibitor, full curve]
Cc1cc(C)cc(NC(=O)C2CCC(CNS(=O)(=O)c3ccc4c(c3)C(C)(C)C(=O)N4C)CC2)c1 (centres undefined) 12.6 µM [inhibitor, single point]

Potency, inactive:
CC(C)CN(C(=O)COC(=O)c1ccccc1NCc1ccco1)c1c(N)n(Cc2ccccc2)c(=O)[nH]c1=O
CC(=O)c1nn(-c2ccccc2)c(=Nc2ccccc2)cc1C
COc1cccc(C(=O)Nc2ccccc2-c2nnc(-c3cc(OC)ccc3Br)o2)c1
COc1ccc(CCNC(=O)c2c(C)oc3ncn(CC(C)C)c(=O)c23)cc1OC
NC(=S)Nc1ccc(F)cc1F
COCCn1c(SCC(=O)Nc2ccc(F)cc2F)nc2c(c1=O)SCC2
